# Experimental data from PubChem BioAssay AID588855 (National Center for Advancing Translational Sciences (NCATS), 2011).
# The campaign covered roughly 410,000 compounds. About 5,000 (1.2%) were called active. This list was built around the results that the source calls inconclusive (neither active nor inactive); the mix of calls is not that of the screen. Calls follow the shape of the dose curve; as a rule, active = well fitted inhibition curve with a large enough effect; inconclusive = small, poorly fitted or top-dose-only effect; inactive = no such curve, though single readings can be large or run the other way. A potency beside an inconclusive call is a rough fit, not a confirmed value.
# Experiment: qHTS for Inhibitors of TGF-b; also: nearly all actives have a fitted effect of over 65% in size
# Conditions: HepG2 CAGA-GFP TGF-b/SMAD3 reporter, GFP fluorescence, 18 h, TGF-beta stimulated, 500 pg/mL final; series mostly up to 46.1 µM; activity, negative = inhibition: at the top concentration
# Procedure, shortened: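 Inhibition of TGF-beta-driven CAGA-GFP reporter expression in HEPG2 cells is measured by cellular GFP fluorescence after 18 h stimulation with 500 pg/mL recombinant TGF-beta in 1% FBS medium at 37 degrees C.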
# % is scaled to controls: 0 for no effect and ±100 for the full control effect; potency is read from the fitted curve at half-maximal effect; tags tell the direction and shape of the fitted curve.
Structure (SMILES),Potency,"activity, negative = inhibition"
COc1ccc(CNC(=O)CN(C)S(=O)(=O)c2ccc3c(c2)c(=O)n(C)c(=O)n3C)cc1,"inconclusive: 3.16 µM [inhibitor, partial curve, poor fit]",
CCCc1cc(=O)oc2cc(OC(=O)CN3C(=O)NC4(CCCC4)C3=O)ccc12,,inactive: 0.951%
Cc1ccccc1CSCC(=O)NNC(=S)NCC1CCCO1 (stereo unspecified),"inconclusive: 3.55 µM [inhibitor, full curve]",
O=C(/C=C/c1cn(-c2ccccc2)nc1-c1cccc(Cl)c1)N1CCN(c2ccccn2)CC1,,inactive: 10.8%
COc1cc(OC)cc(-c2noc([C@@H]3O[C@H](CO)[C@@H](O)[C@H]3O)n2)c1,,inactive: -7.25%
CCCCNc1cc(NC(C)=O)cc2cc(OC)c(OC)cc12,active: 10 µM,
Cc1cc(N2CCCCC2)nc2ccc(NC(=O)CCC(=O)NCCC(C)C)cc12,"inconclusive: 2.82 µM [inhibitor, single point]",
O=C(Cn1cc(C(=O)c2cccs2)c2ccccc21)Nc1ccc(Br)cc1,"inconclusive: 2.51 µM [inhibitor, full curve, poor fit]",
O=C1CCSC2(C(=O)N(Cc3ccc(F)cc3)c3ccccc32)N1c1cccc(F)c1 (stereo unspecified),active: 12.6 µM,
Cc1nc2c(OCc3ccc(C(F)(F)F)cc3)cccn2c1N(C)C(=O)CCC1CCCC1,"inconclusive: 35.5 µM [inhibitor, single point]",
CCN1C(=O)c2ccccc2S(=O)c2ccc(C(=O)NCc3ccc(Cl)cc3)cc21 (stereo unspecified),"inconclusive: 11.2 µM [inhibitor, partial curve, poor fit]",
CCCOc1cccc(C(=O)Nc2cccc(NC(=O)c3ccc(Cl)cc3Cl)c2)c1,"inconclusive: 17.8 µM [inhibitor, single point]",
Cc1ccc(C(C)C)c(OCC(=O)Nc2ccc(O)c(-c3nc4cc(Cl)ccc4o3)c2)c1,"inconclusive: 11.2 µM [inhibitor, partial curve, poor fit]",
COC(=O)C1=C[C@@H](C(=O)OC)C2C3=C(C(=O)[C@@]2(CC(C)C)NC(=O)c2ccccc2)[C@H](C)n2c(=O)n(C)c(=O)n2[C@@H]3C1 (stereo partly specified),"inconclusive: 35.5 µM [inhibitor, single point]",
CSc1cccc(NC(=S)N(CCC(C)C)C2CCN(C(C)=O)CC2)c1,"inconclusive: 7.94 µM [inhibitor, partial curve]",
COc1ccc(-c2cc(C)no2)cc1S(=O)(=O)NCCc1ccco1,,inactive: -5.79%
O=C(Oc1cccc2cccnc12)c1ccc2c(c1)OCCO2,"inconclusive: 15.8 µM [inhibitor, partial curve, poor fit]",
O=C(Cc1ccccc1)Nc1cccc(N2C(=O)C=CC2=O)c1,"inconclusive: 20 µM [inhibitor, single point]",
COc1ccc(Nc2c(-c3ccsc3)nc3nc(C)cc(C)n23)cc1,"inconclusive: 35.5 µM [inhibitor, single point]",
CCN(CCCNC(=O)c1cc2c(-c3cccc(OC)c3)nn(C)c2s1)Cc1ccccc1,,inactive: -2.86%
O=C1C=C(c2ccc(OC(F)(F)F)cc2)C[C@@H](c2ccc(F)cc2)C1,,inactive: -15.8%

Structure (SMILES),Potency,"activity, negative = inhibition"
COC(=O)Cc1ccc(NC(=O)C(c2ccccc2)c2ccccc2)cc1,,inactive: 0.307%
O=C(NC1CCCCC1)C(c1ccncc1)N(CC1CCCO1)C(=O)C(F)(F)F (stereo unspecified),"inconclusive: 6.31 µM [inhibitor, single point]",
CCOc1nc(-c2ccccc2O)nc2ccccc12,,inactive: -8.84%
Cc1ccc(S(=O)(=O)N(C)C[C@H]2Oc3ccc(NC(=O)C4CCCCC4)cc3C(=O)N([C@H](C)CO)C[C@H]2C)cc1,,inactive: -2.22%
O=C(O)CSCC(=O)N1CCN(c2nc3cc(Cl)ccc3s2)CC1,,inactive: -2.24%
Cc1ccc(N(C(C)C(=O)Nc2cc(Cl)ccc2Oc2ccccc2)S(C)(=O)=O)cc1 (stereo unspecified),"inconclusive: 10 µM [inhibitor, partial curve, poor fit]",
O=C(c1cccc(C(=O)N2CCN(c3ccccc3)CC2)c1)N1CCN(c2ccccc2)CC1,"inconclusive: 0.112 µM [inhibitor, full curve, poor fit]",
COc1cc(CN(C)CCc2ccccc2)ccc1OCc1ccccc1,,inactive: 8.17%
COc1cccc(CNc2nc3cc(-c4ccc(OC)cc4C)sc3c(=O)n2C)c1,"inconclusive: 12.6 µM [inhibitor, single point]",
Cc1cc(C)c2sc(N(CCCN(C)C)C(=O)c3ccc(S(=O)(=O)N(C)Cc4ccccc4)cc3)nc2c1,"inconclusive: 35.5 µM [inhibitor, single point]",
COc1ccc(-c2nc(C#N)c(NCCc3ccccc3)o2)cc1OC,"inconclusive: 15.8 µM [inhibitor, single point]",
CCCOc1ccc(C2CC(=O)Nc3cc(OC)c(OC)cc32)cc1 (stereo unspecified),"inconclusive: 4.47 µM [inhibitor, partial curve, poor fit]",
COc1ccc(Cl)cc1NC(=O)C(C)N(C)Cc1ccc(C(F)(F)F)cc1 (stereo unspecified),"inconclusive: 35.5 µM [inhibitor, single point]",
COc1ccc(NC(=O)C2Cc3c(-c4ccco4)ccnc3O2)cc1OC (stereo unspecified),,inactive: 22.9%
CCc1nc2ccc(C(=O)N(C)Cc3ccco3)cn2c1N(C)CCCc1ccccc1,"inconclusive: 35.5 µM [inhibitor, single point]",
O=c1cc(C(F)(F)F)nc(SCc2cccc3ccccc23)[nH]1,"inconclusive: 20 µM [inhibitor, single point]",
CCCCN(C)C(=O)c1nc2ccccn2c1CN1CCN(C/C=C/c2ccccc2)CC1,"inconclusive: 10 µM [inhibitor, partial curve]",
COc1ccc(NC(C)C(=O)Nc2ccc(C#N)cc2)cc1Cl (stereo unspecified),"inconclusive: 14.1 µM [inhibitor, single point]",
CCOc1ccc(NC(=S)N2CCC(C(O)(c3ccccc3)c3ccccc3)CC2)cc1,"inconclusive: 11.2 µM [inhibitor, partial curve, poor fit]",
CCCC[C@@]1(C2CCCC2)Cc2cc(OCC(=O)O)c(Cl)c(Cl)c2C1=O,"inconclusive: 35.5 µM [inhibitor, single point]",
